# Laboratory results reported in PubChem BioAssay AID493208 (National Center for Advancing Translational Sciences (NCATS), 2011).
# Hit rate of the full screen: of about 44,000 compounds, about 340 (0.77%) were called active. Roughly 5% stayed inconclusive and do not appear here. The call rests on the fitted dose curve; in most records, active means well fitted inhibition curve with a large enough effect; inconclusive means small, poorly fitted or top-dose-only effect; inactive means flat fitted curve, though single readings scatter. Some of the results follow.
# Experiment: Acumen qHTS Assay for Inhibitors of the mTORC1 Signaling Pathway in MEF (Tsc2-/-, p53-/-) Cells: Sytravon;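 further: plate controls were DMSO for no effect and rapamycin for full effect; nearly all actives have a fitted effect of over 50% in size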
# Settings: phospho-rpS6 immunofluorescence/PI, 24 h; series mostly up to 38.3 µM; activity change, negative = inhibition: at the top concentration
# Method in brief: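 Immunofluorescence of rpS6 phosphorylation in Tsc2-/-, p53-/- MEFs after 24 h compound exposure, normalized to propidium iodide signal. Activity is expressed as % positive cells, thresholded with 7.5 nM rapamycin.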
row,SMILES,"activity change, negative = inhibition"
1,COc1ccc(NC(=O)CC2Nc3cccc4cccc(c34)NC2=O)cc1 (stereo unspecified),inactive: -11%
2,Cc1ccc2oc(-c3cccc(NC(=O)c4cccc5c(Br)cccc45)c3)nc2c1,inactive: 6.39%
3,O=C(CCCn1c(=O)c2cccn2c2ccccc21)Nc1cccc(Cl)c1,inactive: 1.31%
4,Clc1ccccc1CSc1nncn2c1cc1occc12,inactive: -4.1%
5,CC(=O)N1c2ccccc2CC1C(=O)N1CCN(c2cccc(C)c2C)CC1 (stereo unspecified),inactive: 3.72%
6,Cc1ccc2onc(CC(=O)N3CCN(c4ccccc4F)CC3)c2c1,inactive: -0.56%
7,Cc1oc2ccc(O)c(CN3CCOCC3)c2c1C(=O)Nc1ccc(C(C)C)cc1,inactive: -25.9%
8,COc1ccc(-c2cc(C)no2)cc1S(=O)(=O)N1CCN(c2ccc(C(C)=O)cc2)CC1,inactive: 4.57%
9,COc1ccc(C(=O)NCC(c2cccnc2)N2CCN(c3ccccc3F)CC2)cc1OC (stereo unspecified),inactive: -21.8%
10,CCCc1nn2c(=O)cc(COC(=O)c3ccccc3NC(=O)C3CCCCC3)nc2s1,inactive: 5.12%
11,CCC(=O)N1CCc2cc(S(=O)(=O)CCC(=O)NCc3ccccc3Cl)ccc21,inactive: -9.06%
12,COC(=O)c1c(C)sc(-c2c(-c3ccc(F)cc3)[nH]c3[nH]c(=O)[nH]c(=O)c23)c1O,inactive: -3.91%
13,Cc1ccc(NC(=O)C2CCN(S(=O)(=O)c3cccs3)CC2)cc1,inactive: 2.47%
14,COc1ccc(CCNC(=O)CCc2c(C)nc3c(-c4ccc(F)cc4)c(C)nn3c2C)cc1OC,inactive: 2.36%
15,CC1=C(C(=O)OC2CCCCCC2)C(c2ccccc2Cl)CC(=O)N1 (stereo unspecified),inactive: -9.87%
16,CCc1ccc(NC(=O)CN(c2ccc(C)cc2)S(=O)(=O)c2c(C)nn(C)c2C)cc1,inactive: -9%
17,COCCCNC(=O)N1CCN(c2nnc(C)c3c(C)n(-c4ccc(Cl)cc4)nc23)CC1,inactive: 11.1%
18,Cc1ccc(-n2c(SCc3nc(-c4ccc(Cl)cc4)no3)nnc2-c2ccncc2)cc1,inactive: -19.9%
19,CCOc1cccc(CC(=O)N2CCc3c([nH]c4ccccc34)C2c2ccc(OC)cc2)c1OCC (stereo unspecified),inactive: 9.34%
20,COc1cccc(CNCCCSc2nnnn2C)c1,inactive: -5.92%
21,COc1ccc(-c2c(C)nn3c(C(F)(F)F)cc(C)nc23)cc1OC,inactive: -15%

row,SMILES,"activity change, negative = inhibition"
1,Cc1oc2ncn(C)c(=O)c2c1C(=O)N1CCN(c2ccc(Cl)cc2)CC1,inactive: 4.94%
2,Cc1ccccc1CN1C(=O)c2ccccc2S(=O)c2ccc(C(=O)NCc3ccccc3)cc21 (stereo unspecified),inactive: 12%
3,O=C1c2oc3ccccc3c(=O)c2C(c2cccc(O)c2)N1Cc1ccc(F)cc1 (stereo unspecified),inactive: 2.91%
4,CCOc1ccc(N(CC(=O)Nc2ccc3c(c2)OCO3)S(=O)(=O)c2ccccc2)cc1,inactive: 13.9%
5,CC(C)Sc1ncc(Cl)c(C(=O)Nc2c(C(=O)Nc3ccccc3)oc3ccccc23)n1,inactive: -1.1%
6,Cc1ccccc1Nc1c(-c2ccccc2O)nc2sccn12,inactive: -21.1%
7,Cc1nn(C)c2c1c(-c1ccccc1)cc(=O)n2Cc1c(F)cccc1Cl,inactive: -9.9%
8,O=C(c1cc(-c2ccc(Cl)cc2)on1)N(Cc1ccc(F)cc1)Cc1ccco1,inactive: 1.01%
9,CCc1ccc(NS(=O)(=O)c2ccc3[nH]cc(C(=O)N4CCCCCC4)c(=O)c3c2)cc1,inactive: 2.29%
10,O=C1CN(C(=O)c2ccc(S(=O)(=O)N3CCCC3)cc2)C(c2ccc(F)cc2)c2cc(F)ccc2N1 (stereo unspecified),inactive: 5.1%
11,CCc1cccc(NC(=O)c2sc3nc[nH]c(=O)c3c2C)c1,inactive: -2.38%
12,CCOC(=O)Cc1ccc(NC(=O)N2CCC(CN3CCC(C)CC3)CC2)cc1,inactive: 0.425%
13,COc1ccc(N(C(=O)c2ccc(C)cc2)S(=O)(=O)c2ccc(Cl)cc2)cc1,inactive: 11.6%
14,CCN(c1ccccc1)S(=O)(=O)c1nnc(NC(=O)C(C)Oc2ccccc2)s1 (stereo unspecified),inactive: 1.1%
15,COc1cc(C2C(C(=O)Nc3ccc(C)cc3C)=C(C)Nc3nc(SCc4ccccc4)nn32)cc(OC)c1OC (stereo unspecified),inactive: 5.82%
16,Cc1ccc2oc3c(c(=O)c2c1)C(c1cccc(O)c1)N(CCCN1CCOCC1)C3=O (stereo unspecified),inactive: -4.12%
17,Cc1ccc(CNC(=O)c2cnn3c(C)c(Cc4c(F)cccc4Cl)c(C)nc23)cc1,inactive: 4.21%
18,CCOc1ccc(CCNC(=O)c2ccc(C)c(-n3c(C)nc4cccnc43)c2)cc1OCC,inactive: -12.1%
19,CCOc1ccc(C(=O)Nc2cc(-c3ccccc3)no2)cc1,inactive: 2.4%
20,Cc1cc(Br)ccc1NC(=O)CN1C(=O)c2cccnc2Sc2ccccc21,inactive: -9.78%
21,COc1ccc(N(Cc2cccs2)C(=O)COc2ccc([N+](=O)[O-])cc2)cc1,inactive: -2.81%

row,SMILES,"activity change, negative = inhibition"
1,CCN(Cc1ccccc1)C(=O)c1cc2ccc3cccnc3c2[nH]1,inactive: -5.35%
2,O=C(CCn1cnc2onc(-c3ccc(F)cc3)c2c1=O)N1CCN(c2cccc(Cl)c2)CC1,inactive: -7.25%
3,O=C(Nc1ccccc1C(F)(F)F)N1CCN(c2ccc3nnc(-c4ccc(F)cc4)n3n2)CC1,inactive: -1.97%
4,CCC(C(=O)NCCCN(CC)CC)n1ncn2c(cc3occc32)c1=O (stereo unspecified),inactive: 1.27%
5,CCOc1ccc(CNC(=O)C2Cc3cc(S(=O)(=O)N4CCCCCC4)ccc3N2C(C)=O)cc1 (stereo unspecified),inactive: 0.852%
6,Cc1ccc(NC(=O)Cn2c(-c3nonc3N)nc3ccccc32)cc1Cl,inactive: -4.36%
7,CCOc1ccc(OCC)c(NC(=O)C2CCN(c3cnccn3)CC2)c1,inactive: 1.04%
8,O=C(Nc1nnc(S(=O)(=O)N2CCOCC2)s1)c1ccc(F)cc1,inactive: -0.121%
9,N#Cc1cccc(NC(=O)c2ccc3c(c2)N(Cc2cccc(Cl)c2)C(=O)c2ccccc2S3(=O)=O)c1,inactive: 2.34%
10,O=C(c1ccc(F)cc1F)N1CCC(c2noc(-c3ccc(S(=O)(=O)N4CCCC4)cc3)n2)CC1,inactive: 5.45%
11,Cc1ccccc1-c1noc(-c2ccccc2OCC(=O)Nc2ccccc2[N+](=O)[O-])n1,inactive: 0.632%
12,CCc1ccc(S(=O)(=O)c2nnn3c2nc(NCc2ccccc2OC)c2cc(Cl)ccc23)cc1,inactive: -15.1%
13,CCc1ccc(NC(=O)CN(Cc2ccccc2)S(=O)(=O)c2ccc3nc(C)sc3c2)cc1,inactive: 3.97%
14,Cn1c(=O)oc2cc(S(=O)(=O)Nc3ccc(O)cc3)ccc21,inactive: -0.0579%
15,COc1ccc(C2NC(=O)N(C)C3=C2C(=O)N(c2ccc(C)cc2)C3)cc1 (stereo unspecified),inactive: 2.85%
16,Cc1ccc2oc(=O)n(CCNC(=O)Nc3ccc(C)c(F)c3)c2c1,inactive: -0.734%
17,Cc1ccc(N2CCN(C(=O)c3noc4c3COc3ccc(C)cc3-4)CC2)c(C)c1,inactive: -1.9%
18,Cc1ccc(CN(C(=O)COc2ccc(Br)cc2)c2ccccn2)o1,inactive: -18.7%
19,COc1ccc(NC(=O)CSc2nc(-c3ccccc3)nc3c2Cc2c(CO)cnc(C)c2O3)cc1Cl,inactive: 5.08%
